Test results reported in the supplement of paper PMC12217912.
This is one part of the list. The full chains were built here from the parent and the listed change. Inactive controls read about 0.05.

B1: TEV protease; numbered along this chain (parent)
chain: MGESLFKGPRDYNPISSSICHLTNESDGHTTSLYGIGFGPFIITNKHLFRRNNGTLVVQSLHGVFKVKDTTTLQQHLVDGRDMIIIRMPKDFPPFPQKLKFREPQREERICLVTTNFQTKSMSSMVSDTSCTFPSGDGIFWKHWIQTKDGQCGSPLVSTRDGFIVGIHSASNFTNTNNYFTSVPKNFMELLTNQEAQQWVSGWRLNADSVLWGGHKVFMVKPEEPFQPVKEATQL

Variants of: B1
Assay: raw area under fraction-flipped curve 0-4 h after induction (AUC4h, not background-subtracted), DNA-recorder readout of cleavage of the substrate (dimensionless); higher = more cleavage of the substrate by the protease variant
Conditions: temperature: 34 °C; time window: 0-4 h after rhamnose induction
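Note: Bxb1 expression induced with 0.2% (w/v) L-rhamnose at OD600 near 0.5, cultures sampled hourly, flipped fraction per protease–substrate barcode pair counted by paired-end Illumina sequencing.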

Variant | area with substrate EFLYFQS | area with substrate EGLYFQS | area with substrate EILYFQS | area with substrate EQLYFQS | area with substrate ERLYFQS | area with substrate ESLYFQS | area with substrate ETLYFQS | area with substrate EVLYFQS | area with substrate EWLYFQS | area with substrate EYLYFQS
G202I | 0.0642 | 0.0518 | 0.0728 | 0.0139 | 0.0568 | 0.0594 | 0.052 | 0.0599 | 0.0614 | –
I85A | 0.0749 | 0.062 | – | – | 0.0624 | – | 0.062 | – | 0.0531 | –
L5H | – | 0.146 | 0.109 | – | 0.102 | 0.117 | – | 0.11 | 0.0757 | –
K230A | – | – | – | 0.0787 | – | 0.0617 | – | – | 0.109 | 0.0838
F38E | – | – | – | – | – | – | – | 0.0464 | – | –
G2S | – | – | – | – | – | – | – | – | – | 0.127
G2N | 0.118 | – | 0.142 | – | – | – | 0.181 | – | – | 0.135
E3V | – | – | 0.0676 | – | 0.171 | – | – | – | – | –
N116T | – | – | – | – | – | – | – | 0.103 | 0.11 | –
N116V | – | 0.0702 | 0.0904 | 0.0946 | 0.0958 | 0.104 | – | – | – | 0.094
N116W | – | 0.0805 | – | – | 0.0656 | 0.0971 | 0.11 | 0.0754 | 0.0805 | 0.105
T119W | – | – | – | – | – | 0.12 | 0.159 | – | 0.109 | –
F180H | – | – | 0.0772 | – | 0.123 | 0.107 | – | – | – | –
H143N | – | – | – | – | 0.0991 | 0.0947 | – | 0.0887 | – | –
G162N | – | 0.0679 | 0.0498 | – | – | – | – | – | 0.084 | –
M125W | – | – | 0.106 | – | 0.111 | – | – | – | – | –
M125Y | – | – | – | – | 0.0798 | 0.0994 | – | 0.102 | – | –
L99K | – | – | 0.0537 | 0.0934 | 0.0786 | – | – | – | – | –
S209W | – | – | – | 0.123 | – | – | – | – | – | 0.111
P93L | – | – | – | 0.127 | – | 0.128 | – | – | – | –
P93K | – | – | 0.122 | – | – | – | – | – | – | –
P93W | – | 0.0774 | – | – | – | – | – | – | – | –
G8L | – | – | – | – | 0.114 | 0.0979 | – | – | – | –
F92G | – | 0.0685 | 0.0636 | – | 0.0734 | – | – | 0.0747 | – | –
T132K | 0.071 | – | – | – | – | 0.0609 | – | – | – | –
Q198P | – | 0.0736 | 0.0705 | – | – | – | 0.107 | 0.0756 | – | 0.0863

Variant | area with substrate EFLYFQS | area with substrate EGLYFQS | area with substrate EILYFQS | area with substrate EQLYFQS | area with substrate ERLYFQS | area with substrate ESLYFQS | area with substrate ETLYFQS | area with substrate EVLYFQS | area with substrate EWLYFQS | area with substrate EYLYFQS
T233W | – | – | 0.072 | 0.103 | – | 0.124 | – | 0.0968 | – | –
G35S | – | 0.104 | – | 0.0936 | – | – | – | – | – | –
G35I | 0.0385 | – | – | – | – | – | – | – | – | –
G213H | – | 0.0696 | 0.0412 | – | – | 0.0565 | – | – | – | –
A207R | 0.0817 | – | 0.0913 | – | 0.106 | 0.114 | 0.117 | 0.0943 | – | 0.0812
V229R | 0.0847 | – | – | 0.151 | 0.103 | 0.116 | – | – | 0.0998 | 0.105
D69F | – | 0.0548 | 0.107 | 0.0951 | – | – | – | 0.0725 | – | –
R102N | – | – | – | – | – | – | – | – | – | 0.0812
M83L | – | 0.0895 | – | 0.122 | 0.0877 | 0.0918 | – | 0.0882 | 0.0806 | –
K7H | 0.118 | 0.116 | 0.088 | – | – | – | 0.134 | – | – | –
K7S | – | – | – | 0.11 | – | – | – | 0.105 | – | –
P222L | – | – | – | – | – | – | – | 0.0708 | – | –
M1I | – | – | – | – | – | 0.0718 | – | – | – | –
T174F | – | – | 0.116 | – | – | 0.0982 | – | – | – | –
T174I | – | – | – | – | 0.087 | – | – | – | – | –
R81P | – | – | – | 0.091 | – | – | – | – | – | –
A196V | – | 0.0746 | 0.112 | – | – | 0.0927 | – | – | 0.0747 | 0.124
S182M | 0.0823 | – | – | – | – | – | – | – | – | –
P89C | 0.0771 | 0.0873 | – | – | – | – | 0.0818 | – | – | 0.0965
V165I | – | – | 0.0834 | – | – | 0.102 | 0.104 | 0.152 | – | –
L205S | – | – | – | – | – | – | – | – | – | 0.0905
A170E | – | 0.0512 | 0.0556 | – | – | 0.0625 | 0.0649 | – | – | 0.0602
A170R | – | – | 0.0437 | – | – | 0.0635 | – | – | 0.037 | 0.0553
A170Q | – | – | – | – | – | – | 0.0515 | – | – | –
A170I | – | – | 0.0576 | – | – | – | – | – | – | –
I84H | 0.0436 | 0.0606 | 0.0589 | – | – | 0.0613 | – | – | – | –

Same assay, conditions: temperature: 34 °C; time window: 0-4 h after rhamnose induction

Variant | area with substrate EMLYFQS | area with substrate EKLYFQS | area with substrate EPLYFQS | area with substrate EHLYFQS | area with substrate EELYFQS | area with substrate ELLYFQS
G2N | 0.211 | – | – | – | – | –
N116T | – | 0.11 | – | – | – | –
N116V | – | 0.0964 | 0.101 | – | – | –
N116W | 0.0903 | 0.108 | 0.13 | 0.0981 | – | –
F180H | – | 0.114 | – | – | – | –
M125W | – | 0.0643 | – | – | – | –
M125Y | 0.0985 | – | – | – | 0.102 | –
L99K | 0.0886 | 0.0761 | – | – | – | –
L99H | – | 0.0937 | – | – | – | –
S209W | – | – | 0.113 | – | 0.145 | –
P93L | 0.117 | – | 0.186 | 0.149 | 0.136 | –
P93K | – | – | – | – | 0.118 | –
P93W | 0.104 | – | – | – | – | –
G8L | 0.123 | – | 0.106 | – | – | –
F92G | – | – | – | – | 0.0877 | –
T132K | 0.0602 | – | – | – | – | –
Q198P | 0.0686 | – | 0.0962 | – | – | 0.0776
T233W | – | 0.122 | – | 0.0642 | – | –
G35S | – | 0.0808 | – | – | 0.0847 | –

Variant | area with substrate EMLYFQS | area with substrate EKLYFQS | area with substrate EPLYFQS | area with substrate EHLYFQS | area with substrate EELYFQS | area with substrate ELLYFQS
G35I | – | – | 0.0551 | – | – | –
G213H | 0.0809 | 0.0731 | – | – | – | –
A207R | – | 0.116 | – | – | – | –
V229R | 0.0805 | – | – | 0.0978 | – | –
D69F | 0.0765 | – | 0.0888 | – | – | –
R102N | – | – | 0.0419 | – | – | –
M83L | – | – | – | – | – | 0.0988
K7H | – | – | 0.111 | – | – | 0.108
P222L | – | – | 0.134 | 0.0729 | – | 0.0701
T174I | 0.0488 | – | – | 0.0845 | 0.0524 | –
R81P | – | – | – | 0.0897 | 0.0883 | –
A196V | – | 0.105 | 0.169 | 0.0958 | – | –
P89C | – | – | 0.104 | – | – | –
V165I | – | 0.103 | 0.139 | – | – | –
L205S | – | – | – | – | 0.0839 | 0.0835
A170R | 0.0533 | – | – | – | – | 0.0598
A170I | – | – | – | 0.0383 | – | –
A170F | – | 0.0563 | – | – | – | –
I84H | 0.0524 | 0.0265 | 0.0357 | – | 0.0709 | 0.046
